Results as given in paper PMC4336329 (PLoS ONE, 2015).
About 2,200 (0.71%) of roughly 310,000 compounds showed an effect of 50% or more. The effect is printed as a negative number. Some of the results follow.

target: human ether-à-go-go-related gene (hERG) potassium channel (human, UniProt Q12809); assay: primary screen, population patch clamp on CHO cells stably expressing hERG
Sequence (Q12809 whole entry, looked up): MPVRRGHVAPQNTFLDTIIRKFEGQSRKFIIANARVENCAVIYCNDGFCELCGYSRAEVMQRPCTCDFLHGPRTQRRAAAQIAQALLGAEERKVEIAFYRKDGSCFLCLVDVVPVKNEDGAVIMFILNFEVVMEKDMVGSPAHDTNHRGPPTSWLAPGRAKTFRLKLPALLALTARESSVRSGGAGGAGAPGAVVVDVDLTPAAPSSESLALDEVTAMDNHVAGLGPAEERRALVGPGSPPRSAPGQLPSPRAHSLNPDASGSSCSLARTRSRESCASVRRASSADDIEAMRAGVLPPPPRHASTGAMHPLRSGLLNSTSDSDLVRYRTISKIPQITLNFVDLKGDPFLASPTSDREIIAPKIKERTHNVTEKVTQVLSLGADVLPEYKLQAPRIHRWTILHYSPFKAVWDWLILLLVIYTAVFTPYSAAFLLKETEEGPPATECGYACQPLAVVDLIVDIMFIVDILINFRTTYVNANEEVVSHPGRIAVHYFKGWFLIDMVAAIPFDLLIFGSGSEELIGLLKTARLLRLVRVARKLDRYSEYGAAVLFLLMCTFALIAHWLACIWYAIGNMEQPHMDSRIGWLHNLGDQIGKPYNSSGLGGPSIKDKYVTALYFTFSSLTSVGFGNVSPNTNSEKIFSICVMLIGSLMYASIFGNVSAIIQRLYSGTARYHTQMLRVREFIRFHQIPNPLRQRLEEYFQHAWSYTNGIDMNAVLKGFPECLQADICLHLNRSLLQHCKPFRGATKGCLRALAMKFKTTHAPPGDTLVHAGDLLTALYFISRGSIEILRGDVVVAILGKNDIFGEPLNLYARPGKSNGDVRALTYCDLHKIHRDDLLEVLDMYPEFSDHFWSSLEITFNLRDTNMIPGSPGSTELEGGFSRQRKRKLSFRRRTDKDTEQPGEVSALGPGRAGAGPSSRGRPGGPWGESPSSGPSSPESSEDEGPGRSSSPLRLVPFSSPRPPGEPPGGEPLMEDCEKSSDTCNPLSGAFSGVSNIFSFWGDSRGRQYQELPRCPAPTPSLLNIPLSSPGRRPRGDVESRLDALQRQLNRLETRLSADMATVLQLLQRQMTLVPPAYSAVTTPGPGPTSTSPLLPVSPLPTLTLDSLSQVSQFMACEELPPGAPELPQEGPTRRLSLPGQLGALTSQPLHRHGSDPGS

Compound | hERG current change (%, negative = inhibition) at 1uM [%]
COc1ccc(NC(=S)N2CCC(NC(=O)C3CCCCC3)CC2)cc1 | 5.77
O=S(=O)(Nc1cccnc1)c1ccc(Cl)cc1 | 14.4
O=C(CSc1nc(-c2ccc(F)cc2)cc(C(F)(F)F)n1)NCCN1CCOCC1 | 2.93
COc1cccc(N2CCN(C(=O)CN(c3ccc(C)cc3)S(=O)(=O)c3c(C)n[nH]c3C)CC2)c1 | 5.03
O=C1C(=C2SCCCS2)CC/C1=C\c1ccc(F)cc1 | 10.6
COC(=O)C1(CC2CC(c3ccc(Cl)cc3)=NO2)CCN(C(=O)OC(C)(C)C)CC1 (centres unmarked) | 10.4
COCc1nnc(NC(=O)c2ccc(Cl)cc2[N+](=O)[O-])s1 | 15
Cc1ccc(CN2CCNC(=O)C2CC(=O)NCc2cc(C)n(C)n2)cc1 (centres unmarked) | 5.48
Cc1cccnc1NC(=O)c1cccc(S(=O)(=O)N2CCCc3ccccc32)c1 | 7.18
Cc1nn(C)c(Oc2ccccc2)c1CCNC(=O)C(C)(C)C | 7.31
COc1ccccc1-c1nc(NC(C)=O)n[nH]1 | 19
COc1ccc(OC)c(S(=O)(=O)NC(N)=NCCc2ccccc2OC)c1 | 5.24
O=C(C1CCN(S(=O)(=O)c2ccccc2)CC1)N1CCC2(CC1)OCCO2 | 8.95
CCOc1ccc(CC(=N)C2=C(O)CC(C)(C)CC2=O)cc1OCC | 3.14
O=C(CNS(=O)(=O)c1c(Cl)cccc1Cl)OCC(=O)N1CCN(c2ccccc2)CC1 | -3.73
COCCN(C(=O)CCc1nnc(Cc2c[nH]c3ccccc23)o1)C(C)C | 8.01
O=C(c1[nH]nc2c1CCc1ccccc1-2)N1CCN(Cc2ccc3c(c2)OCO3)CC1 | 4.73
c1ccc(-c2csc3ncnc(N4CCN(Cc5ccc6c(c5)OCO6)CC4)c23)cc1 | -34.4
COc1cc(NC(=O)c2cc([N+](=O)[O-])ccc2N2CCOCC2)ccc1NC(=O)c1ccco1 | 13.9

Compound | hERG current change (%, negative = inhibition) at 1uM [%]
COc1ccc(Br)cc1C(=O)Nc1ccc(C(=O)O)cc1 | 11.3
Cc1cc2oc(=O)cc(-c3cc4ccccc4o3)c2cc1OC(=O)N(C)C | 13.9
Fc1ccccc1-c1n[nH]c(=S)n1CC1CCCO1 (centres unmarked) | 8.95
O=C(OCc1cncs1)c1ccccc1Cl | 13.9
CCC(Sc1nc(-c2ccccc2)cc(=O)[nH]1)C(=O)O (centres unmarked) | 7.62
CCOc1ccccc1N1CC(O)=C(c2nc3ccccc3s2)C1=N | 5.48
CN(C1CCS(=O)(=O)C1)S(=O)(=O)c1ccccc1 (centres unmarked) | 7.41
COc1ccccc1NC(=O)CSc1nc2ccccc2c(=O)n1CC1CCCO1 (centres unmarked) | 11.9
Fc1ccc(CSc2nc3ccccc3[nH]2)cc1 | 5.01
Cc1ccc(CN2CC(C(=O)N3CC(C)CC(C)C3)CC2=O)cc1 (centres unmarked) | 1.46
Cc1ccc(Nc2ncnc(-n3cccc3)n2)cc1Cl | 10.7
Cc1[nH]nc(-c2ccc(O)cc2O)c1Oc1ccccc1 | -1.62
FC(F)(F)c1ccc(N2CCN(c3cc(-c4ccccc4)nc4ncnn34)CC2)nc1 | -15.2
O=C(O)c1ccccc1-n1cccc1C(=O)O | 12.4
CC1C(=O)Nc2ccc(S(=O)(=O)N3CCc4ccccc4C3)cc2NC1=O (centres unmarked) | 12.5
Cc1ccc(S(=O)(=O)NCCc2cccs2)cc1 | 5.09
COc1ccc(NC(=O)c2cccc(C(=O)Nc3ccc(OC)cc3)n2)cc1 | 6.45
Cc1ccc(C(=O)Nc2cc3ccccc3oc2=O)cc1 | 8.27
O=C1CCCCN1CC(=O)N1CCCC(Nc2ccc(F)c(F)c2)C1 (centres unmarked) | 12.4

Compound | hERG current change (%, negative = inhibition) at 1uM [%]
Cc1sc(NC(=O)CCCC(=O)O)c(C(N)=O)c1-c1ccccc1 | 12.8
Cc1ccc(NC(=O)C2CCCN2S(=O)(=O)c2ccc3c(c2)n(C)c(=O)c(=O)n3C)cc1C (centres unmarked) | 8.33
O=C(Cn1nc(-c2ccc3c(c2)OCCO3)ccc1=O)Nc1cccc(NC(=O)c2ccccn2)c1 | 8.06
Oc1ccc2ccccc2c1CNc1ccc(Br)cc1 | 14.4
O=C(Cc1c(F)cccc1Cl)Nc1ccc(S(=O)(=O)N2CCCC2)cc1 | 11.8
Cc1cc(C)c(OCC(=O)N(Cc2ccc(N(C)C)cc2)C2CCS(=O)(=O)C2)c(C)c1 (centres unmarked) | 4.02
O=C(COc1ccccc1)N1CCN(c2ncccn2)CC1 | 10.1
Cc1cc(C)c(S(=O)(=O)n2ccc(-c3ccc(OCCN(C)c4ccccn4)cc3)n2)c(C)c1 | 14
COc1ccc(CCNC(=O)c2ccc3c(c2)NC(=O)C(N2CCOCC2)S3)cc1OC (centres unmarked) | 11.3
O=C(CC1CCCCC1)NCCS(=O)(=O)N1CCN(c2ccccc2)CC1 | 18.9
CS(=O)(=O)N(CC(=O)Nc1cc(Cl)ccc1Cl)c1ccccc1Cl | 8.34
CCOC(=O)CN1C(=O)S/C(=C/c2ccc3c(c2)n(C)c(=O)n3C)C1=O | 9.23
O=C(NCc1ccccc1Cl)c1ccc(CS(=O)Cc2ccc(Cl)cc2)o1 (centres unmarked) | -0.612
Cn1c(=O)n(C)c2cc(NC(=O)c3ccc(F)cc3)ccc21 | 17
CN(C)S(=O)(=O)c1cccc2c1C(=O)c1ccccc1C2=O | 3.58
Cc1ccc(-c2n[nH]c(=O)c3ccccc23)cc1S(=O)(=O)N(C)C | 14
Cn1c2ccccc2c2nnc(SCC(=O)Nc3cccc(C(=O)O)c3)nc21 | 11.8
O=C(NCc1ccc(F)cc1)C1(S(=O)(=O)c2ccc(Cl)cc2)CC1 | -2.31
